This is one part of the list. The list includes weakly bound sequences.

Among the data in article PMC4242493 are binding signal (normalized occupancy) values, retold here.

The test has as its target MaxL homodimer (UniProt P61244). The test can be described thus: universal protein-binding microarray (PBM). Particulars: PBS-based mixture, 10 nM His-tagged protein dimer, 2% milk, 200 ng/uL BSA, 50 ng/uL salmon testes DNA, 0.02% TX-100; detection with Alexa 488 anti-His …; high values mean tight binding; most listed sequences are background and not binding sites; double strand, one strand shown.
Sequence of UniProt P61244 (P61244 whole entry): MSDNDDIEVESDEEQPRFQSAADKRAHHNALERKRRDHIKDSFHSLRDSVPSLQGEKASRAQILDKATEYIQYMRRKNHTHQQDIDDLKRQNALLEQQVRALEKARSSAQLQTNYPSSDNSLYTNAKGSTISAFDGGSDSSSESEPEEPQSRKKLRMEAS
With GGCACATA, the binding signal (normalized occupancy) was 0.0876. For the sequence AAATCGAG, the binding signal (normalized occupancy) came to 0.0683. On to CATATAAC, for which the binding signal (normalized occupancy) turned out to be 0.0843. The result for AAACCAGC reads 0.0715; that for AACGGCTA, 0.0659; that for CCGCAGAG, 0.0718. Consider CGAGGAAG, for which the binding signal (normalized occupancy) came out at 0.0707. Turning to GTAAAGAA, the binding signal (normalized occupancy) came out at 0.0758. Next, ACCCTCAA: 0.0718. Consider CGCTGGAA, for which the binding signal (normalized occupancy) came to 0.0732. For CTTTCGAC, the binding signal (normalized occupancy) was determined as 0.0751. On to AAGTTATG, for which the binding signal (normalized occupancy) stood at 0.0839. For AGTGACTG, the binding signal (normalized occupancy) amounted to 0.0713. In the case of ATGCGCAG, the binding signal (normalized occupancy) came to 0.0789. The result for ACGCGGAC reads 0.083; that for AACACGCC, 0.0909. Next, AGCCCGCT: 0.0701.

As for CAATGGAG, the binding signal (normalized occupancy) amounted to 0.0742. On to AGTCCACA, for which the binding signal (normalized occupancy) worked out at 0.0765. For the sequence ATAACAAG, the binding signal (normalized occupancy) amounted to 0.075. Turning to AGACGTAC, the binding signal (normalized occupancy) is 0.0758. In the case of ACCCGCCA, the binding signal (normalized occupancy) was 0.0756.

Take GGTTGCGA: the binding signal (normalized occupancy) is 0.0696. Regarding TACGGTGA, the binding signal (normalized occupancy) was 0.0721. As for AGTTTCCA, the binding signal (normalized occupancy) worked out at 0.0748. As to TCAAGCCA, the binding signal (normalized occupancy) worked out at 0.0742. Consider CAGCTAAA, for which the binding signal (normalized occupancy) came to 0.0704.

For GGGAAACA, the binding signal (normalized occupancy) was determined as 0.0786. Consider TCCAGCCA, for which the binding signal (normalized occupancy) amounted to 0.0775. In the case of ACGATCAA, the binding signal (normalized occupancy) turned out to be 0.0748. With AAGGTGGA, the binding signal (normalized occupancy) was 0.0747. For AGACGATG, the binding signal (normalized occupancy) is 0.0739. As to CATGGGTA, the binding signal (normalized occupancy) was 0.0914. As for ATAGGCAT, the binding signal (normalized occupancy) was found to be 0.0877.

In the case of ACACAATC, the binding signal (normalized occupancy) was found to be 0.0756. In the case of ACGAGCTC, the binding signal (normalized occupancy) is 0.0759. Consider AGCCGAAT, for which the binding signal (normalized occupancy) came out at 0.0749.

CATCGAGA: the binding signal (normalized occupancy) was 0.0768. Consider AAATACGA, for which the binding signal (normalized occupancy) was found to be 0.0784.

Consider CCTTACTA, for which the binding signal (normalized occupancy) was 0.0759. In the case of CATCGGAC, the binding signal (normalized occupancy) amounted to 0.0717.

For ATTGCGCC, the binding signal (normalized occupancy) stood at 0.0735.

In the case of TCAAGTGA, the binding signal (normalized occupancy) came to 0.0721. The result for TAATAGTA reads 0.0774; that for CCAACGGG, 0.0725; that for AAATTAAC, 0.0725. Next, GTGCTTCA: 0.0817; CCTGTACA: 0.0767. As to AGCATATG, the binding signal (normalized occupancy) is 0.103. Next, ATCTTAAG: 0.0746; GTAAGAAA: 0.0769. The result for AATGCGCT reads 0.0752; that for AGGCATAA, 0.0727. In the case of TACGGGCA, the binding signal (normalized occupancy) worked out at 0.0723.

For the sequence GCCTCTAA, the binding signal (normalized occupancy) was found to be 0.0775. Next, AAAGGGCC: 0.0677; CCGACGGC: 0.0682. With AGGATCAT, the binding signal (normalized occupancy) is 0.076. Turning to AACAAATC, the binding signal (normalized occupancy) was determined as 0.0773.

Regarding CAACAATC, the binding signal (normalized occupancy) amounted to 0.0759. For the sequence AATACTAC, the binding signal (normalized occupancy) was determined as 0.078. Consider CTTCACGA, for which the binding signal (normalized occupancy) amounted to 0.078. For the sequence GGCATTGA, the binding signal (normalized occupancy) stood at 0.0781. Next, GCCTAACC: 0.0773; CCGGAGCA: 0.0692; ACTGGATG: 0.0719. As for ATCGAGCC, the binding signal (normalized occupancy) came out at 0.0724. For AAATTCCG, the binding signal (normalized occupancy) turned out to be 0.0713. Regarding ATACAGTG, the binding signal (normalized occupancy) came to 0.0799. Turning to GTATAGGA, the binding signal (normalized occupancy) is 0.078. Regarding AAACCGGT, the binding signal (normalized occupancy) was determined as 0.0705. GATAAATA: the binding signal (normalized occupancy) stood at 0.0806. As to GGACCTAA, the binding signal (normalized occupancy) was 0.0706. For the sequence ATGGCAGA, the binding signal (normalized occupancy) worked out at 0.0796. Turning to CCACTACC, the binding signal (normalized occupancy) amounted to 0.0743. On to GACGGCGA, for which the binding signal (normalized occupancy) is 0.0752. On to AAAGAACC, for which the binding signal (normalized occupancy) worked out at 0.0707.

TCTAATAA: the binding signal (normalized occupancy) is 0.0821. For the sequence ATGATGCC, the binding signal (normalized occupancy) worked out at 0.0771. For AGCCACAT, the binding signal (normalized occupancy) turned out to be 0.0918. As to GCAATGAC, the binding signal (normalized occupancy) is 0.0772. As to TGTACACA, the binding signal (normalized occupancy) was 0.0795. AAGGCAGC: the binding signal (normalized occupancy) stood at 0.0677.

In the case of CGACTTAG, the binding signal (normalized occupancy) was 0.0726. As to ACGAATAC, the binding signal (normalized occupancy) is 0.0755.

On to AGGAATAC, for which the binding signal (normalized occupancy) worked out at 0.0761. With ATCTTTGC, the binding signal (normalized occupancy) was 0.0728. As for CATCCATC, the binding signal (normalized occupancy) came out at 0.0861. The result for GCGAAACC reads 0.072; that for GAAAGGAA, 0.071. For the sequence CCATGAGA, the binding signal (normalized occupancy) worked out at 0.0896.

For CCGTATCG, the binding signal (normalized occupancy) came out at 0.0716.

As to ACGGTGAC, the binding signal (normalized occupancy) was found to be 0.08. With CCCTATAA, the binding signal (normalized occupancy) turned out to be 0.0822. ATTTGACC: the binding signal (normalized occupancy) was determined as 0.0728. Regarding CATCCTCC, the binding signal (normalized occupancy) was 0.0798. Take GCGCCAGA: the binding signal (normalized occupancy) was determined as 0.067. As to ACCACAGA, the binding signal (normalized occupancy) is 0.0782. For the sequence AAAACATA, the binding signal (normalized occupancy) worked out at 0.0798.

Consider ACGGGCGC, for which the binding signal (normalized occupancy) was 0.0712. As to GAGATTGA, the binding signal (normalized occupancy) is 0.0786. For the sequence ACCGCATA, the binding signal (normalized occupancy) amounted to 0.0828.

On to TCACGAGA, for which the binding signal (normalized occupancy) was 0.0875.

With GATGAGCC, the binding signal (normalized occupancy) came to 0.0743. The result for AGGAATCG reads 0.0901; that for ATCCGAGG, 0.0714.

On to ATACTTAA, for which the binding signal (normalized occupancy) turned out to be 0.0756.

With AAAAGTTA, the binding signal (normalized occupancy) was found to be 0.0747.

Take CGTTTCAG: the binding signal (normalized occupancy) stood at 0.0692.
